{"source": "patent US20240115549A1", "about": "“TREATMENT OF MENTAL DISORDERS” (GH Research Ireland Limited, priority 2022, published 2024)", "test_system": "patients with treatment-resistant major depressive disorder (TRD)", "experiment": "Phase 1/2 clinical trial of inhaled 5-MeO-DMT in TRD patients"}
{"compound": "COc1ccc2[nH]cc(CCN(C)C)c2c1", "note": "[5-MeO-DMT]", "values": [{"measurement": "Serious adverse events", "setting": "Part A", "value": "No SAEs were reported"}, {"measurement": "Changes in safety laboratory analyses, vital signs, psychiatric safety assessments, cognitive function", "setting": "Part A and Part B", "value": "No clinically significant changes"}, {"measurement": "Patients with at least one ADR", "setting": "Part A, 12 mg", "value": "3 of 4"}, {"measurement": "Patients with at least one ADR", "setting": "Part A, 18 mg", "value": "3 of 4"}, {"measurement": "Serious adverse events", "setting": "Part B", "value": "No SAEs were reported"}, {"measurement": "Hypomania induction", "setting": "TRD patients", "value": "no evidence of hypomania induction"}]}
